Molecules are shown by their SMILES. The campaign covered roughly 7,900 compounds. About 400 (5.1%) showed an effect of 50% or more. The list shows a part of the results.

Our source for the Inhibition % values is article PMC9574860, “Chemical Toolkit for PARK7: Potent, Selective, and High-Throughput” (Journal of Medicinal Chemistry, 2022).

Sequence of Parkinson's disease protein 7 (PARK7/DJ1) (Q99497 whole entry, looked up, the tested form may be a part): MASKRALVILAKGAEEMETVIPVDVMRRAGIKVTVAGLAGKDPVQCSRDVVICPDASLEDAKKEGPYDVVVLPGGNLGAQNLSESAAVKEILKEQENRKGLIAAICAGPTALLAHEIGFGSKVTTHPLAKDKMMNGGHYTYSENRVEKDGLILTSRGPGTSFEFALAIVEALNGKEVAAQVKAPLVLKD

This assay deals with Parkinson's disease protein 7 (PARK7/DJ1) (human, UniProt Q99497). Description: primary screen, percent inhibition; read as competition with a fluorescent probe by fluorescence polarization; higher = more effect of the substance. The conditions noted are these: 100 µM. The method in brief:
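Covalent fragments at 100 μM final were incubated 2 h with 0.2 μM PARK7, then 20 nM probe JYQ-107 added for a further 2 h. Fluorescence polarization read at 480/520 nm; relative FP loss versus reference controls gave remaining enzyme activity.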
On to `N#Cc1ncn(CCCOc2ccc(Cl)cc2)n1`, for which the Inhibition % is on record as 9.73%. Regarding `C=CC(=O)N1CCC(C#N)(COC)CC1`, the Inhibition % amounted to 5.2%. Next, `CC1(C)OB(c2ccc3c(c2Cl)NC(=O)CO3)OC1(C)C`: -1.01%; `CCc1ccc(OC)c(S(=O)(=O)n2ccnc2C(C)C)c1`: 17.9%. Turning to `CC1(C23CC4CC(CC(C4)C2)C3)CO1` (centres unmarked), the Inhibition % is reported as 7.91%. Next, `C=CC(=O)NCc1ccc(Cn2ccccc2=O)cc1`: 14.4%; `Cn1ccc(NS(=O)(=O)C=Cc2ccc(Cl)cc2)n1`: 11.2%. Turning to `Cc1nn(-c2ccccc2)c(C)c1C=C(C#N)C(=O)O`, the Inhibition % stood at 6.36%. For `CS(=O)(=O)c1ccc(C(=O)CCl)cc1` the value was 87.3%; for `N#CC(=Cc1ccco1)C(=O)NCc1ccccc1`, 13%. For `CCC1CC(CC(=O)Nc2cn[nH]c2C#N)CCO1` (centres unmarked) the value was 8.24%; for `CC1c2cccn2CCN1S(=O)(=O)C=Cc1ccccc1` (centres unmarked), 21.4%.

As for `C=CC(=O)Nc1cc(OC)c(OC)c(OC)c1`, the Inhibition % is listed as 6.39%. For `CC(C)N1CCC(NC(=O)CCl)CC1.Cl` the value was 2.57%. Next, `CC1CC(C)CN(C(=O)C=Cc2cscn2)C1` (centres unmarked): 7.7%; `c1ccc(OCC2CO2)cc1` (centres unmarked): 9.6%; `CCN(CC)C(=O)Oc1ccc(NC(C)=O)cc1`: 7.25%. For `CCCc1nc(C#N)c(N2CCC(C(N)=O)CC2)o1` the value was 7.7%; for `CN(C(=O)Cn1cnc(C#N)n1)C1=CCCC1`, 9.73%.

For `Cc1cc(C)n(S(=O)(=O)c2ccc(Cl)c(Cl)c2)n1`, the Inhibition % was determined as 7.19%. As to `O=C(CCl)Nc1ccc(-c2ccccc2)cc1`, the Inhibition % is given as 4.3%.

For `COC(=O)c1cc(Cl)cc(Cl)c1NC(=O)CCl`, the Inhibition % came out at 1.69%.

With `Cl.NCCNS(=O)(=O)C=Cc1ccccc1Cl`, the Inhibition % was 15.1%. `O=C(CCCl)Nc1ccc2[nH]c(=O)[nH]c2c1`: the Inhibition % amounted to 12.3%. Regarding `C=CC(=O)N1CCC(Cc2ccccc2)C1` (centres unmarked), the Inhibition % stood at 7.4%.

Consider `CN1CCN(C(=CC#N)c2ccc(F)cc2)CC1`, for which the Inhibition % amounted to 15%. For `C=CC(=O)Nc1ccc(S(=O)(=O)N2CCCC2)cc1` the value was 8.4%. For `C=CC(=O)NC1CN(C(C)=O)C1` the value was 4.46%. For `C=CC(=O)N1CCC(c2ccnn2C)CC1`, the Inhibition % is 4.28%.

For `O=C(CCN1C(=O)CCC1=O)Nc1ccc(Cl)cn1`, the Inhibition % was -0.378%. Next, `C=CC(=O)N1CC(c2cc(CO)on2)C1`: 7.24%; `CC1(c2ccccc2)NC(=O)N(NC(=O)CCl)C1=O` (centres unmarked): 16.9%. For `Cc1c(C)c2ccc(OCC3CO3)c(C)c2oc1=O` (centres unmarked) the value was 10.5%; for `C=CC(=O)NCCC1Cc2ccccc2C1`, 7.33%; for `Cn1cc(C=C(C#N)c2nc3ccccc3s2)cn1`, 5.09%. `O=S(=O)(F)c1ccc(S(=O)(=O)N2CC3CC(O)C3C2)cc1` (centres unmarked): the Inhibition % came out at 20.2%.

With `CN(Cc1ccccc1Br)C(=O)CCl`, the Inhibition % stood at 93.9%. Next, `N#Cc1nc(C2CC2)n[nH]1`: 2.55%; `N#CC(=Cc1csc(C2CC2)n1)c1ccccn1`: 6.07%. Next, `O=C1SCCN1CC(=O)N1CCCc2cc(F)c(F)cc21`: 4.11%; `O=C(CCl)Nc1ccc(F)c(F)c1`: 25.9%. For `CC(=O)Nc1ccc(OC(=O)N2CCCC2)cc1` the value was 8.48%; for `O=C(CCCl)Nc1ccccc1C(F)(F)F`, 16.7%; for `CC(C)(C)OC(=O)N1CCOc2cccc(B3OC(C)(C)C(C)(C)O3)c2C1`, 3.79%. As for `C=CC(=O)N(C)CC(=O)N1CCCC1`, the Inhibition % is 5.8%. Consider `N#Cc1cnc(Oc2ccc(F)cc2)cn1`, for which the Inhibition % is recorded as 6.61%. For `Cc1csc(N2CCN(C3CCOC3=O)CC2C)n1` (centres unmarked) the value was 4.89%; for `Cc1cc(NC(=O)CN2CCSC2=O)n(C)n1`, 9.76%. For `CN(CCN1C(=O)CCC1=O)Cc1nc2c(s1)CCCC2` the value was 9.47%; for `CC1(C)OB(c2ccnn2C2CCOCC2)OC1(C)C`, 15.5%; for `C=CC(=O)N1CCC(c2nc(C)no2)C1` (centres unmarked), 7.51%. For `C=CC(=O)N1CCN2C(=O)N(C)C(=O)C2C1` (centres unmarked) the value was 5.02%; for `C=CC(=O)N1CCN(c2ncccc2F)CC1`, 7.9%. `CN(CC(=O)Nc1cccc(Cl)c1)c1ccc(C#N)nc1`: the Inhibition % is reported as 6.52%. Turning to `C=CC(=O)NC(c1ccco1)C(C)(C)C` (centres unmarked), the Inhibition % was 7.05%. For `C=CC(=O)N1CCC(c2ccc(C)cc2)C1` (centres unmarked) the value was -4.08%; for `Cc1sc(S(=O)(=O)F)cc1N`, 21.4%; for `CC1CCN(CC(O)CN2C(=O)CCC2=O)CC1` (centres unmarked), 11.1%. Turning to `Cc1ccc(Nc2nccnc2C#N)cc1`, the Inhibition % stood at 5.64%.

In the case of `ClCCC1CCCO1` (centres unmarked), the Inhibition % came to 9.25%. For `CC(C)c1nc2c(n1C)CCN(c1cccnc1C#N)C2` the value was 87%; for `C=CC(=O)NC1CCCNC1=O` (centres unmarked), 12.4%. On to `CC(C)(C)c1nc(C#N)co1`, for which the Inhibition % is listed as 6.2%.

As for `O=C(CCl)Nc1cc2c(cc1[N+](=O)[O-])OCCCO2`, the Inhibition % is recorded as 3.15%. Next, `CC1CC(N2CCCC(Cn3cncn3)C2)C(=O)O1` (centres unmarked): 12.1%; `C=CC(=O)N1CCO[C@@H]2COCC[C@@H]21` (racemic): 7.52%; `O=S(=O)(F)c1ccc(Br)cc1`: 13.2%. Next, `CCc1c(OC(=O)NC)noc1C`: 84.6%; `C=CC(=O)N1CCN(Cc2cccc(F)c2)CC1`: 5.18%. For `CC1CCCC(NC(=O)NC(=O)CCl)C1C` (centres unmarked) the value was 0.611%; for `N#CC(=Cc1cccc(Cl)c1Cl)C(N)=O`, 8.01%.

Turning to `CC1(C(=O)Nc2cccc(S(=O)(=O)F)c2)CCCC1`, the Inhibition % is listed as 97.7%. On to `N#Cc1cc(N2C[C@@H](C(F)(F)F)[C@H](C(N)=O)C2)ccn1`, for which the Inhibition % is on record as 9.08%. For the compound `CCOc1ccc(C)cc1S(=O)(=O)n1ccnc1`, the Inhibition % is 15.5%.

Regarding `ClCCc1cncs1`, the Inhibition % is reported as 0.423%. Next, `Cc1c(NC(=O)c2cccnc2S)cnn1CCC(C)C`: 3.61%; `CCn1c(N)c(C(=O)CCl)c(=O)[nH]c1=O`: 4.93%. In the case of `C=CC(=O)N1CCCC(OCC(F)(F)F)C1` (centres unmarked), the Inhibition % is -2.11%. As to `Cc1cnc(NC(=O)c2cccnc2S)[nH]1`, the Inhibition % was 3.06%.

In the case of `N#CC(=Cc1cccnc1)c1nc2ccccc2[nH]1`, the Inhibition % amounted to 21.9%. Regarding `C#CC(=O)N1CCC(OC)C1` (centres unmarked), the Inhibition % is listed as -2.28%. With `O=S(=O)(C=Cc1ccccc1)Nc1ccc(F)cn1`, the Inhibition % stood at 6.27%. Take `NC(=O)c1ccccc1OS(=O)(=O)c1ccccc1`: the Inhibition % is reported as 5.17%. Regarding `O=C(CCl)NC(Cc1c[nH]c2ccccc12)C(=O)O` (centres unmarked), the Inhibition % came out at 12.1%.

For `C=CC(=O)NCc1cc2c(cc1OC)CC(C)O2` (centres unmarked), the Inhibition % is recorded as 3.88%. For `O=C1NC(c2ccncc2)C12CCC2` (centres unmarked) the value was 7.13%; for `C=CC(=O)Nc1ccnc(OC)c1`, 10%.

Take `CCN(C(=O)CCl)c1ccccc1`: the Inhibition % was 44.6%.

Consider `C=CC(=O)NC(c1ccccc1)c1nc(C)no1` (centres unmarked), for which the Inhibition % turned out to be 10.1%. For `C=CC(=O)N1CC(OC)Cc2ccccc21` (centres unmarked) the value was 13.5%. Next, `C=CC(=O)NC1CCCc2occc21` (centres unmarked): 3.08%; `C#CC(=O)N1CCC(O)C1` (centres unmarked): 6.99%; `CCOc1ccc(-c2n[nH]c(=O)o2)cc1`: 10.3%.

For `CC1(C)OB(c2cccc(OCCN3CCCCC3)c2)OC1(C)C`, the Inhibition % is listed as -0.0143%. For `C=CC(=O)NCCc1ccc(F)cn1` the value was -26.8%; for `C=CC(=O)N1CCCC1c1cc(C)no1` (centres unmarked), 10.8%; for `Cc1nn(C)c(Cl)c1C=CC(=O)N1CCCC(C(C)N)C1.Cl` (centres unmarked), 10.2%.

`CC1(C)OB(c2cc(Cl)ccc2C2CC2)OC1(C)C`: the Inhibition % was 4.29%. As to `C=CC(=O)N1CCOC(C2CCCO2)C1` (centres unmarked), the Inhibition % is reported as 7.18%. Next, `C=CC(=O)N[C@@H]1C[C@H]1[C@@H]1C[C@H]1C` (mixture of isomers): 7.3%; `C=CC(=O)N1CC(F)(c2ccccc2)C1`: 10.9%; `COC(=O)C1CCN(C(=O)CCl)CC1`: 11.9%. Take `C=CC(=O)N[C@H]1CCCC[C@H]1n1cc(C(C)(C)O)nn1`: the Inhibition % stood at 5.13%. Next, `C=CC(=O)N1CCOCC2(CCOCC2)C1`: 8.17%; `O=c1cn[nH]c(S)n1`: 74.8%. For `C=CC(=O)NCC1CC(C)=NO1` (centres unmarked) the value was -1.19%; for `C=CC(=O)NCC1SCCc2ccccc21` (centres unmarked), 4.59%; for `FC(F)(F)c1ccc(S)nc1`, 26.5%. In the case of `N#Cc1ccnc(NC2CCCCCC2)n1`, the Inhibition % amounted to 4.9%. Next, `N#CC(=Cc1c[nH]c2ccccc12)C(N)=S`: 12%; `CCn1cc(B2OC(C)(C)C(C)(C)O2)cn1`: 14.9%. Next, `Cc1cccc2cc(B(O)O)cnc12`: 13.1%; `Cc1cnc(NC(=O)CCN2C(=O)CCC2=O)s1`: 8.1%; `C=CC(=O)N(C1CC1)C1COC1`: 25%. Next, `C=CC(=O)NC1CC(C)(OC)C1(C)C` (centres unmarked): 8.48%; `O=C(CCl)NCCOc1ccc(Cl)cc1`: 20.3%; `C=CC(=O)NCc1ccccc1-c1cnn(C)c1`: 1.76%. Turning to `CCOc1ccc(S(=O)(=O)n2cc(C)nc2CC)cc1C`, the Inhibition % is given as 9.41%. As for `CCN(C(=O)CCl)c1nc2ccccc2s1`, the Inhibition % worked out at 24.6%. For `O=C(C=Cc1c(Cl)nc2ccccn12)N1CCCCC1` the value was 4.67%; for `Cn1cc(CNC(=O)c2cccnc2S)c(C(F)(F)F)n1`, 9.8%; for `COc1cc(OC)c(NC(=O)CCl)cc1Cl`, 3.54%. Next, `CC(C)NC(=O)C(C#N)=Cc1ccc(Cl)cc1`: 6.67%; `N#Cc1cccc(S(=O)(=O)F)c1`: 97.3%. For `O=C1CCC(=O)N1CCC(=O)N1CCCC1C1CCCC1` (centres unmarked) the value was 5.37%.
